Out of some 310,000 compounds screened, about 2,200 (0.71%) showed an effect of 50% or more. The effect is printed as a negative number. The list shows a part of the results. Where a SMILES comes first, the peptide text is derived from it. [ ]: non-standard residue; d: D form. The star is where a group is joined. ξ: configuration not given here. Boc = CC(C)(C)OC(=O)*; ξP = O=C(O)C1CCCN1
target: human ether-à-go-go-related gene (hERG) potassium channel (human, UniProt Q12809); assay: primary screen, population patch clamp on CHO cells stably expressing hERG
Sequence (Q12809 whole entry, looked up): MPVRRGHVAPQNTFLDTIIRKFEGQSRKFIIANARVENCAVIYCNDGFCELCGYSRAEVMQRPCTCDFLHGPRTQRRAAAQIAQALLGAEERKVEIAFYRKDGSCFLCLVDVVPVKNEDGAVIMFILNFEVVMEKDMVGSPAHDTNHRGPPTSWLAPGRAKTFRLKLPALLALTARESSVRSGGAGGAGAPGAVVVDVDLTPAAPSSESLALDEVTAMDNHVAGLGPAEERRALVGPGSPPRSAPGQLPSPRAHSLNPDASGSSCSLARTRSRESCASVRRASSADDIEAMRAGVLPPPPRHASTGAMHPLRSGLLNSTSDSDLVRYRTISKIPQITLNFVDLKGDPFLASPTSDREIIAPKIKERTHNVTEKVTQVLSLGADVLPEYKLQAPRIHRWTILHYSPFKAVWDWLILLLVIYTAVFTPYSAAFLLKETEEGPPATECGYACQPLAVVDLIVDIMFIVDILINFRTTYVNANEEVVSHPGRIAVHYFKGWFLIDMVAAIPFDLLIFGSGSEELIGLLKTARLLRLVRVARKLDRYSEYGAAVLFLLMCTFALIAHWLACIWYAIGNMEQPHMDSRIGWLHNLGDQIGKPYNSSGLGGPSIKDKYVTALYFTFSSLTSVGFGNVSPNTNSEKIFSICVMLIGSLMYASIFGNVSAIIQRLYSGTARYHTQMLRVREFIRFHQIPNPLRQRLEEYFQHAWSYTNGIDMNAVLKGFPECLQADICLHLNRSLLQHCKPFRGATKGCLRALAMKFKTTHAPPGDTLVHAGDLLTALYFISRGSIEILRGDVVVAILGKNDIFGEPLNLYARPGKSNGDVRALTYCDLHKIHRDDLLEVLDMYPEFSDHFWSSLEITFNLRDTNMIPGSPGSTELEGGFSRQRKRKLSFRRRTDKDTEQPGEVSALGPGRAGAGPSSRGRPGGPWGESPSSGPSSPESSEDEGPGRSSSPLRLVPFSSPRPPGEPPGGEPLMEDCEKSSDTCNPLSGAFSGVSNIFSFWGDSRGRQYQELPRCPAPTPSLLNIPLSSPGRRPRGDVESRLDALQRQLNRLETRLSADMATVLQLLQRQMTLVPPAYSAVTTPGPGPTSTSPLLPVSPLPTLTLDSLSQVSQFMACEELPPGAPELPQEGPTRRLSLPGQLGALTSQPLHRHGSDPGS

| Structure (SMILES) | hERG current change (%, negative = inhibition) at 1uM [%] |
| --- | --- |
| Cc1ccc(SCC(=O)NCCN2C(=O)CSC2=O)cc1C | 8 |
| S=C(Nc1ccc(Cl)cc1)NC1CC2CCCC(C1)N2C1CC1 (stereo not shown) | -6.76 |
| CCOc1cc2[nH]c(=S)n(Cc3ccc(C(=O)N4CCN(C)CC4)cc3)c(=O)c2cc1OCC | 6.41 |
| COC(=O)CNC(=O)C1CCCN1C(=O)CNC(=O)OC(C)(C)C (stereo not drawn) (Boc-Gly-[ξP]-Gly-OMe) | 9.5 |
| CC(=O)Nc1ccc(N2C(=O)c3cccc(NC(C)=O)c3C2=O)cc1 | 17.6 |
| COc1ccccc1Nc1ccc([N+](=O)[O-])cn1 | 8.99 |
| Cc1sc2ncnc(SCC(=O)N3CCCC(C(N)=O)C3)c2c1C (stereo not shown) | 13.7 |
| CCN1CCN(C(c2cccnc2)c2c(NC(=O)c3ccco3)sc(C)c2C)CC1 (stereo not shown) | -13.7 |
| CC(C)CNC(=S)Nc1ccc(F)cc1 | 17.7 |
| Cc1ccc(C)c(CSc2nnc(CCN)o2)c1.Cl | 10.7 |
| CCc1ccc2nc(NC(=O)Cn3cnc4ccccc4c3=O)sc2c1 | 11.3 |
| O=c1oc(CCCO)cc2ccc(/C=C/c3cccc([N+](=O)[O-])c3)cc12 | 13 |
| Cc1ccc(N(C(=O)CNC(=O)c2ccco2)C(C(=O)NCC2CCCO2)c2ccccc2)c(C)c1 (stereo not shown) | 7.15 |
| Cc1ccc(NS(=O)(=O)c2cccc(C(=O)N3CCCCCCC3)c2)cc1 | 13.3 |
| Cc1cccc(NC(=S)N2CCN(Cc3ccc4c(c3)OCO4)CC2)c1C | 2.54 |
| CCC(CC)=NNC(=O)c1ccccc1OCc1ccc(F)cc1 | 2.8 |
| O=C(Nc1ccccc1C(=O)O)c1cc(S(=O)(=O)Nc2ccccc2)ccc1Cl | 19.5 |
| COc1ccc(NC(=O)CSCC(=O)Nc2nnc(C)s2)cc1 | 19.8 |
| O=C(Nc1cccc(NC(=O)c2ncn[nH]2)c1)c1cccc(Cl)c1 | 13 |
| Cc1ccc(NC(=O)CN(C)C(C)C(=O)N2CC(C)CC(C)C2)cc1 (stereo not shown) | 9.07 |
| Cc1nn(-c2ccc(N3CCCCC3)nn2)c(C)c1CCC(=O)Nc1ccc(F)c(F)c1 | -9.66 |
| Cc1cccc(C)c1NC(=S)Nc1ccccc1C(=O)NCc1ccco1 | -3.55 |
| COc1cccc(C(=O)N=c2sc3cc(S(C)(=O)=O)ccc3n2C)c1 | 19.1 |
| CCO/C=C/C(O)(CNC(=O)COc1ccccc1F)C(F)(F)F (stereo not shown) | 19.8 |
| S=C1NC(c2ccccc2)N2C(=S)NC(c3ccccc3)N12 (stereo not shown) | 3.38 |
| CCCn1c(NC(=O)c2ccc(C)cc2)nc2ccccc21 | -0.02 |
| CCC(=O)c1cc2c(C)cc(=O)oc2c(C)c1OC(C)=O | 7.37 |
| COc1cc2c(cc1OC)/C(=C/C#N)NC(C)(C)C2 | 7.09 |

| Structure (SMILES) | hERG current change (%, negative = inhibition) at 1uM [%] |
| --- | --- |
| O=C(c1cc2cc(Cl)ccc2[nH]1)N1CCN(c2ccc(F)cc2)CC1 | 22.8 |
| CCCCNC(=O)C(NS(=O)(=O)c1cccc2nsnc12)c1ccccc1 (stereo not shown) | 11.2 |
| CC(C)n1cnc2c(Nc3cccc(F)c3)nc(NCCO)nc21 | 13.6 |
| Cc1cc(OCc2ccccc2)ccc1/C(O)=C1/C(=O)C(=O)N(Cc2cccnc2)C1c1ccncc1 (stereo not shown) | 7.48 |
| COc1ccccc1CCNC1CCC(C)CC1 (stereo not shown) | 9.05 |
| COc1ccccc1N1CCN(C(=O)COc2ccc(S(=O)(=O)NC(C)(C)C)cc2)CC1 | 7.41 |
| Cc1cccc(C(=O)O/N=C/c2ccc(Br)cc2)c1 | 16.2 |
| CC(C)c1ccc(NC2CCCN(C(=O)c3cc(C(C)C)nc(N)n3)C2)cc1 (stereo not shown) | 6.58 |
| NS(=O)(=O)c1ccc(N/N=C/c2cn(-c3ccccc3)nc2-c2cccs2)c([N+](=O)[O-])c1 | 13.7 |
| COc1ccc(NC(=O)Nc2cc(C)ccc2F)cc1OC | 4.91 |
| Cc1ccc(NC(=O)CN(C)C(=O)COC(=O)c2nc3nccc(C)n3n2)cc1 | 7.92 |
| CCOC(=O)Cn1nnc(-c2ccc([N+](=O)[O-])cc2)n1 | 10.7 |
| CN(C)S(=O)(=O)N1CCC(Oc2ccc(C(=O)NC3CCCCC3)cc2)CC1 | 30.9 |
| CCOC(=O)c1ccc(NC(=S)NNC(=O)C2(C)CC2(Cl)Cl)cc1 (stereo not shown) | 15.7 |
| COc1ccccc1Nc1n[nH]c(=S)s1 | 3.99 |
| C/C(=N\NC(=O)CN(c1ccc(C)cc1)S(C)(=O)=O)c1cccs1 | 8.96 |
| COc1cccc(NC(=O)CN(C)C(=O)c2ccc(NC(=O)CC3SC(N4CCCCC4)=NC3=O)cc2)c1 (stereo not shown) | 9.04 |
| Cc1ccc(N2CCN(S(=O)(=O)c3ccc4c(c3)n(C)c(=O)c(=O)n4C)CC2C)cc1 (stereo not shown) | 4.38 |
| CCCc1nc2c(C)cc(-c3nc4ccccc4n3C)cc2n1Cc1ccc(-c2ccccc2C(=O)O)cc1 | -2.75 |
| COc1cccc2cc(C(=O)C3=C(O)C(=O)N(CCN(C)C)C3c3ccc(F)cc3)oc12 (stereo not shown) | 2.45 |
| O=C(O)CCCCC1SCC2NC(=O)NC21 (stereo not shown) | 9.86 |
| Cc1[nH]n(-c2ccccc2)c(=O)c1N=Nc1ccc(C#N)cc1 | 12.1 |
| C=CCc1cccc(/C=N/NC(=O)c2ccccc2OC)c1O | 15.6 |
| Cc1nonc1NC(=O)Nc1cccnc1 | -3.05 |
| Cc1ccccc1NC(=O)CSc1nnc(-c2ccoc2C)n1CCc1ccccc1 | -9.75 |
| Cc1cc(C)n(-c2nc(SCC(=O)O)c3c4c(sc3n2)COC(C)(C)C4)n1 | 4.39 |
| O=C(Nc1cc(S(=O)(=O)N2CCCCC2)ccc1Oc1ccccc1)C1=COCCO1 | 1.18 |

— PMC4336329 (PLoS ONE, 2015)
